Test results: article PMC4336329 (PLoS ONE, 2015)
Out of some 310,000 compounds screened, about 2,200 (0.71%) showed an effect of 50% or more. The effect is printed as a negative number. This is one part of the list.

target: human ether-à-go-go-related gene (hERG) potassium channel (human, UniProt Q12809); assay: primary screen, population patch clamp on CHO cells stably expressing hERG
Sequence (Q12809 whole entry, looked up): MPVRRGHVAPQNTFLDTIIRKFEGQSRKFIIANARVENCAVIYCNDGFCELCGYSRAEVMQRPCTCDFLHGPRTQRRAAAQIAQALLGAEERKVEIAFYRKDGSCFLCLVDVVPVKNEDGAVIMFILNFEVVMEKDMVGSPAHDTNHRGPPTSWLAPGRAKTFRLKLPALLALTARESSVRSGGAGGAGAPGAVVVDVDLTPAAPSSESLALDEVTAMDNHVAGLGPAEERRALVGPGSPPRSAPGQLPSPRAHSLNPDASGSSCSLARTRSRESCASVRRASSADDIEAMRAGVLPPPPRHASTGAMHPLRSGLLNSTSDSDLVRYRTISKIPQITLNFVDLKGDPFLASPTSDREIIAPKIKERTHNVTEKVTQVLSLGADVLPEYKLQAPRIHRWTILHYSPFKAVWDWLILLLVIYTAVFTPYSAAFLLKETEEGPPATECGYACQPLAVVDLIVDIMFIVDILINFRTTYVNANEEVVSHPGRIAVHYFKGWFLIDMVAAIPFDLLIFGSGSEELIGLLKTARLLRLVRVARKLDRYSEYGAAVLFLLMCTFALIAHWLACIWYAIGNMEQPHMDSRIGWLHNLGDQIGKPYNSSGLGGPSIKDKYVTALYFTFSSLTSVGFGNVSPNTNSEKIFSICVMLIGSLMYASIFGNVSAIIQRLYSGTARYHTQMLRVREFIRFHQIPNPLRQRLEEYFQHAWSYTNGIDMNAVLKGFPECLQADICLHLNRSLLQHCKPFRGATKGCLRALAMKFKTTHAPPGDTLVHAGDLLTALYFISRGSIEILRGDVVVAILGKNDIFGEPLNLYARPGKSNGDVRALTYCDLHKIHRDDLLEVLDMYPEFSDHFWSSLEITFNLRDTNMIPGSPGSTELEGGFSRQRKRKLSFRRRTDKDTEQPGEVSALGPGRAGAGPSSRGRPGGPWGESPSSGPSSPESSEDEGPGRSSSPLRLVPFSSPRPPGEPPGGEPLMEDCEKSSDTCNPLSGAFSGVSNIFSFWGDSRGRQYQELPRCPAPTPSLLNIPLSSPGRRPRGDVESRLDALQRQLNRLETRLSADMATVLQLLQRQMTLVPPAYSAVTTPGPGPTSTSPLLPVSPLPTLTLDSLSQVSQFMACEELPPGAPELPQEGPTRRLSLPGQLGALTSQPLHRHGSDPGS

Row | SMILES | hERG current change (%, negative = inhibition) at 1uM [%]
1 | C/C(=N\NC(=S)Nc1ccc(F)cc1)c1ccc2c(c1)OCCO2 | 14.9
2 | Cc1nn(CCC#N)c2nc(-c3ccccc3)cc(C(F)(F)F)c12 | 2.72
3 | O=C(CSc1ccc([N+](=O)[O-])cc1)Nc1cccc(S(=O)(=O)Nc2ccccc2F)c1 | -10.3
4 | COc1ccc(C)cc1NC(=O)CN1C(=O)c2cccc3cccc1c23 | 13.9
5 | CN(Cc1ccno1)Cc1cn(C)nc1-c1ccc(Oc2ccccc2)cc1 | 8.21
6 | CCCCN(C)CCC(=O)Nc1ccc(F)c(F)c1.Cl | 9.37
7 | CC/C(CC(C)(C)c1ccccc1)=N\O | 2.48
8 | COc1ccc(Br)cc1CNc1ccc2[nH]c(=O)[nH]c2c1 | 11.6
9 | O=C(CSc1ccccn1)NC1CCCC1 | 15.8
10 | CC(=O)c1c(C)[nH]c(C(=O)N2CCC3(CC2)OCCO3)c1C | 18.8
11 | Cc1scc(C(=O)NNC(=S)NC(C)c2ccccc2)c1C (stereo not drawn) | 6.56
12 | O=c1nc(/C=C/c2ccccc2C(F)(F)F)cc(C(F)(F)F)[nH]1 | 14.9
13 | Cc1c2cnn(-c3ccccc3)c(=O)c2c(C)n1CCCC(=O)N1CCN(C2CCCCC2)CC1 | 1.08
14 | Cc1c(N=Cc2c(O)n(Cc3ccccc3)c(=O)[nH]c2=O)c(=O)n(-c2ccccc2)n1C | 12.4
15 | CN(C)/C=N/c1ncc(C(=O)c2ccc(-c3ccccc3)cc2)s1 | 5.65
16 | COCCN(Cc1ccccc1)C(=O)c1cccc(S(=O)(=O)N2CCN(c3ccc(F)cc3)CC2)c1 | -5.5
17 | CN(C)S(=O)(=O)c1cccc(NC(=O)COC(=O)c2cccc(S(=O)(=O)N3CCc4ccccc4C3)c2)c1 | 5.93
18 | CS(=O)(=O)c1ccc(CNC(=O)C2(C(F)(F)F)C/C(=C\Cc3ccccc3)CCCO2)cc1 (stereo not drawn) | 7.41
19 | S=C(NCc1cccnc1)Nc1cccc(Cl)c1 | 0.891
20 | COc1ccccc1C(=O)C1CCCN(C(=O)c2cnn(C(C)C)c2)C1 (stereo not drawn) | 14.4
21 | O=C(Nc1ccccc1O)c1cccc(S(=O)(=O)N2CCOCC2)c1 | 10.3
22 | Cc1ccc2c(cnn2C(=O)CCCC(=O)NCc2ccc(Cl)cc2)c1 | 3.59

Row | SMILES | hERG current change (%, negative = inhibition) at 1uM [%]
23 | COc1cccc(Nc2nc(-c3ccccc3O)nc3ccccc23)c1 | 19.4
24 | Cn1nnnc1SCCNC(=O)C1CCC(=O)N(CCc2ccccc2)C1 (stereo not drawn) | 9.14
25 | COc1ccc(Cl)cc1C(=O)Nc1ccc(Br)c(C)n1 | 10.1
26 | Cc1cccc2c1N(C(=O)CN1C(=O)c3ccccc3C1=O)C(C)(C)c1ssc(=S)c1-2 | 22.1
27 | COc1ccc(-c2cc(=O)oc3c(C)c(OC(C)C(=O)Nc4ccc(CN5CCOCC5)cc4)ccc23)cc1 (stereo not drawn) | 6.47
28 | CCOC(=O)N1CCN(S(=O)(=O)c2ccc(Br)s2)CC1 | 4.21
29 | CC1(c2nnc(-c3ccc(F)cc3)o2)CC(c2ccncc2)=NO1 (stereo not drawn) | 8.25
30 | COc1cccc(-c2cc(C(F)(F)F)c(C#N)c(=O)[nH]2)c1 | 5.54
31 | CCOC(=O)/C(C(N)=NCCO)=C(/O)c1ccccc1 | 7.92
32 | COc1ccc(CN(Cc2cccn2C)S(=O)(=O)c2ccc(F)cc2)cc1 | 7.76
33 | CCOP(=O)(OCC)/C(=N/OC(=O)c1ccccc1C)C(N)=O | 7.21
34 | CCOC(=O)CN1C(=O)COc2ccc(Cl)cc21 | 13.2
35 | CCOCC(=O)Nc1ccccc1C(=O)N1CCOCC1 | 12.4
36 | CCOc1ccc2[nH]c(=O)c(CN(CCO)Cc3nnnn3CCc3ccccc3)cc2c1 | -15.8
37 | O=C(Nc1cc(S(=O)(=O)N2CCOCC2)ccc1N1CCOCC1)c1cc2c(s1)CCC2 | 6.01
38 | O=C(O)C1C2C=CC3(CN(CC(O)COc4ccccc4)C(=O)C13)O2 (stereo not drawn) | 12.3
39 | CCOC(=O)N1CCC(N2C(=O)c3ccc(C(=O)NCc4ccco4)cc3C2=O)CC1 | 3.56
40 | O=C(CSc1nc(-c2ccc(Cl)cc2)cs1)Nc1cccc([N+](=O)[O-])c1 | 11.8
41 | O=C(O)c1cccnc1Sc1ccccc1Cl | 14.4
42 | COC(=O)C(=O)C/C(=N/Nc1ncnc2ccccc12)c1ccc(Cl)cc1 | -0.965
43 | Cc1ccc(S(=O)(=O)N2CCOCC2)cc1C(=O)Nc1ccc2c(c1)CCC2 | 5.95
44 | Cc1c(C(c2ccccc2O)c2c(C)n(C)n(-c3ccccc3)c2=O)c(=O)n(-c2ccccc2)n1C | 3.29

Row | SMILES | hERG current change (%, negative = inhibition) at 1uM [%]
45 | CC1CCCCC12NC(=O)N(CC(=O)N1CCc3ccccc31)C2=O (stereo not drawn) | 8
46 | CC(=O)Oc1cc2c3c(c1)/C(=C1/SC(=S)NC1=O)C(=O)N3C(C)(C)C=C2C | 25
47 | COc1cc(OC)cc(C(=O)Nc2ccc(N(C)C)c3ccccc23)c1 | 16
48 | O=[N+]([O-])c1cccnc1Oc1cccnc1 | 20.7
49 | Cc1ncoc1C(=O)N1CCCC(C(=O)c2cccc(OC(C)C)c2)C1 (stereo not drawn) | 6.56
50 | COc1ccc(S(=O)(=O)N2CCN(C(=O)c3c(-c4ccccc4)noc3C)CC2)cc1 | -0.297
51 | Cn1c(=O)n(CCOc2ccc(Cl)cc2Cl)c2ccccc21 | -0.208
52 | Cc1nn(CC(=O)N2CCOCC2)c(=O)c2nn(-c3ccccc3)c(C)c12 | 16.5
53 | O=C(OCC(=O)N1CCN(C(=O)c2ccco2)CC1)c1cccc(S(=O)(=O)N2CCc3ccccc32)c1 | -3.96
54 | O=C(Nc1cccc2ncccc12)C(Cl)(Cl)Cl | 4.09
55 | Cc1cc(NC(=O)C(=O)NCCN2CCN(C(=O)c3cccs3)CC2)ccc1Br | -37
56 | COC(=O)c1cc(C(=O)CC(C)C)c[nH]1 | 2.96
57 | COc1ccc(CNC(=O)C2CC(c3cccc([N+](=O)[O-])c3)=NO2)cc1 (stereo not drawn) | 5.46
58 | S=C(Nc1cc(Cl)cc(Cl)c1)N1CCN(c2ccccn2)CC1 | 17.4
59 | c1cncc(CNc2nc(N3CCOCC3)nc(N3CCOCC3)n2)c1 | 2.65
60 | CCn1c2ccc(F)cc2c2nc3ccccc3nc21 | 10.2
61 | CCC1(c2ccccc2)NC(=O)N(CC(=O)N(C)Cc2ccccc2)C1=O (stereo not drawn) | 14.8
62 | COC(=O)c1cc2n(n1)CCN(Cc1ccccc1Cl)C2=O | 0.155
63 | COc1ccccc1NC(=O)c1ccc(COc2ccccc2Br)o1 | 13.8
64 | Cc1noc(C)c1C(=O)N1CCC(C(=O)c2ccc(F)cc2F)CC1 | 16.8
65 | CCn1c2ccccc2c2cc(NC(=O)c3ccccc3[N+](=O)[O-])ccc21 | 14.1
66 | CC1CCN(S(=O)(=O)c2ccc3nc(N4CCN(c5ccccc5)CC4)ccc3c2)CC1 | 14.1

Row | SMILES | hERG current change (%, negative = inhibition) at 1uM [%]
67 | COc1ccc(Cc2nnc(NC(=O)c3ccccc3F)s2)cc1OC | 8.9
68 | CCOc1ccc(S(=O)(=O)NCc2cccnc2)cc1C(C)C | 18.5
69 | Cc1ccc(S(=O)(=O)N[C@H](C(=O)OCC(=O)NC(=O)Nc2ccc3c(c2)OCCO3)C(C)C)cc1 | 14.4
70 | CCN(CC)S(=O)(=O)c1ccc(Cl)c(OC)c1 | 7.58
71 | COc1ccc(CNC(=O)C(=O)NCC2OCCN2S(=O)(=O)c2ccc(OC)c(OC)c2)cc1 (stereo not drawn) | 7.81
72 | CCCCSc1nc2c(cnn2-c2ccc(Cl)cc2)c(=O)[nH]1 | -0.955
73 | COC(=O)c1c(-c2cccnc2)csc1NC(=O)c1cc(C)on1 | 17.5
74 | Cc1cc(C)cc(CSCC(=O)NN=C2CCCCCC2)c1 | 10.4
75 | CC(=O)NS(=O)(=O)c1ccc(NS(=O)(=O)c2ccccc2[N+](=O)[O-])cc1 | 11
76 | Cc1ccc(NC(=S)N(Cc2ccc(Br)cc2)Cc2ccc(C(=O)O)cc2)cc1C | 4.73
77 | C=CCn1cc(C(=O)NCc2cccnc2)c(=O)c2cc(S(=O)(=O)N(CC)CC)ccc21 | -46.9
78 | O=[N+]([O-])c1ccc2nc(SCc3ccccc3Cl)sc2c1 | 1.98
79 | CCCC(=O)c1c(C)c2ccccc2n1C | 11.5
80 | CCn1c(Cc2cccc3ccccc23)nnc1SCC(=O)Nc1nccs1 | 7.05
81 | Cc1ccc(NC(=O)Cn2cccc2)c(C)c1 | 1.56
82 | Cc1ccc(Cl)cc1NC(=O)C1CC1c1ccccc1 (stereo not drawn) | 18.2
83 | O=C1Nc2ccccc2O/C1=C\c1ccccc1Br | 0.525
84 | CCC(CC)C1=NN2C(=N)/C(=C/c3ccc(OC(=O)c4ccco4)cc3)C(=O)N=C2S1 | 17.3
85 | CCCCC(CC)CNC(=O)c1[nH]c(C)c(C(C)=O)c1C (stereo not drawn) | -1.93
86 | CC(C)(C)NC(=O)NC(=O)COC(=O)c1c(F)cccc1Cl | 10.9
87 | CC(C)CCNC(=S)Nc1ccc(F)cc1 | 8.98
